Assay results: the supplement of paper PMC9446081
In all, about 39,000 compounds went through this assay and about 220 (0.56%) showed activity. The list shows a part of the results.

tested on: Escherichia coli K-12 BW25113; experiment: relative growth (OD600 normalised to plate interquartile mean) (fraction); higher = less growth inhibition, active = 0.2 or less; conditions: 50 µM; LB; incubation time: overnight (16-24 h)
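Note: static incubation at 37 °C against the wild-type strain, values averaged over two biological replicates.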

Row | Compound | relative growth
1 | C[C@@H]1CN([C@H](C)CO)C(=O)CCCn2nncc2CO[C@@H]1CN(C)C(=O)Nc1ccnc(N2CCOCC2)c1 | inactive: 0.994
2 | CO/N=C1\CN(c2nc3c(cc2F)c(=O)c(C(=O)O)cn3C2CC2)C[C@@H]1CN | active: 0.154
3 | COc1ccccc1CNC(=O)C[C@@H]1CC[C@@H]2[C@H](COC[C@H](O)CN2C(=O)Nc2ccc(F)cc2)O1 | inactive: 0.975
4 | CC(C)(C)c1ccc(C(=O)Nc2cccc(C(F)(F)F)c2)cc1 | inactive: 1.03
5 | C[C@@H]1CCCCO[C@H](CN(C)Cc2ccc(C(F)(F)F)cc2)[C@@H](C)CN([C@H](C)CO)C(=O)c2cc(NC(=O)Nc3cccc4ccccc34)ccc2O1 | inactive: 1.06
6 | C[C@H]1CN([C@@H](C)CO)C(=O)Cc2cc(NC(=O)CCN3CCOCC3)ccc2O[C@H]1CN(C)CC1CCCCC1 | inactive: 0.995
7 | C[C@@H]1CN([C@@H](C)CO)C(=O)c2cc(C3=CCCCC3)cnc2O[C@H]1CN(C)S(=O)(=O)c1cn(C)cn1 | inactive: 1.01
8 | C[C@@H]1CN([C@@H](C)CO)C(=O)Cc2cc(NC(=O)Nc3ccc(C(F)(F)F)cc3)ccc2O[C@H]1CN(C)C(=O)Nc1ccccc1 | inactive: 1.04
9 | C[C@H]1CN([C@@H](C)CO)S(=O)(=O)c2ccc(-c3cncnc3)cc2O[C@@H]1CN(C)C(=O)C1CCCCC1 | inactive: 0.996
10 | O=C(C[C@H]1C[C@H]2c3cc(NC(=O)c4ccc5c(c4)OCO5)ccc3O[C@H]2[C@H](CO)O1)NCc1ccccn1 | inactive: 1.06
11 | O=C(C[C@@H]1CC[C@@H](NS(=O)(=O)c2ccccc2F)[C@H](CO)O1)NCCCN1CCOCC1 | inactive: 0.976
12 | Cc1ccc(S(=O)(=O)N(C)C[C@H]2Oc3cc(C#Cc4ccccc4)ccc3S(=O)(=O)N([C@@H](C)CO)C[C@@H]2C)cc1 | inactive: 1.03
13 | O=C(N[C@H]1CC[C@@H](CC(=O)N2CCOCC2)O[C@@H]1CO)c1ccc2c(c1)OCO2 | inactive: 1
14 | CC(C)NC(=O)N(C)C[C@@H]1Oc2ccc(NS(=O)(=O)c3cn(C)cn3)cc2C(=O)N([C@@H](C)CO)C[C@H]1C | inactive: 1
15 | CC(C)C#Cc1cnc2c(c1)C(=O)N([C@@H](C)CO)C[C@@H](C)[C@@H](CN(C)C(=O)c1ccc3c(c1)OCO3)O2 | inactive: 0.984
16 | Cc1noc(C)c1S(=O)(=O)N(C)C[C@H]1Oc2c(NS(=O)(=O)c3ccc(F)cc3)cccc2C(=O)N([C@@H](C)CO)C[C@H]1C | inactive: 1.01
17 | O=C(C[C@@H]1C=C[C@@H](NC(=O)c2ccc3c(c2)OCO3)[C@H](CO)O1)NCc1ccc(Oc2ccccc2)cc1 | inactive: 1.03
18 | CN(Cc1cc(Br)cc(Br)c1N)C1CCCCC1.Cl | inactive: 0.832
19 | OCC1OC(OCC2OC(O)C(O)C(O)C2O)C(O)C(O)C1O (centres undefined) | inactive: 0.929
20 | CC1CCC2C(C)C(OC(=O)CCC(=O)O)OC3OC4(C)CCC1C32OO4 (centres undefined) | inactive: 0.895
21 | C[C@H](CO)N1C[C@H](C)[C@@H](CN(C)Cc2ccc(Oc3ccccc3)cc2)Oc2c(NS(=O)(=O)c3ccccc3)cccc2C1=O | inactive: 1.02
22 | C[C@H](CO)N1C[C@H](C)[C@H](CN(C)S(=O)(=O)c2ccc(F)cc2)Oc2c(NS(=O)(=O)c3cccs3)cccc2C1=O | inactive: 1.01

Row | Compound | relative growth
23 | C[C@H]1CCCCO[C@@H](CN(C)S(=O)(=O)c2ccc(Cl)cc2)[C@@H](C)CN([C@@H](C)CO)C(=O)c2cc(NS(=O)(=O)c3ccc(Cl)cc3)ccc2O1 | inactive: 1.01
24 | Cl.c1ccc2c(CC3=NCCN3)cccc2c1 | inactive: 1.12
25 | O=C1CCC(=O)NCC/C=C/CCN1 | inactive: 1.01
26 | Cc1noc(C)c1S(=O)(=O)N(C)C[C@H]1Oc2ccc(NC(=O)C3CC3)cc2CC(=O)N([C@H](C)CO)C[C@@H]1C | inactive: 1
27 | O=C(O)[C@@H](O)Cc1ccc(O)c(O)c1 | inactive: 0.995
28 | O=C(NCCC1=CCCCC1)c1sc2ccccc2c1Cl | inactive: 1
29 | COc1ccc(NC(=O)N(C)C[C@H]2Oc3c(NC(=O)Nc4cccc5ccccc45)cccc3C(=O)N([C@@H](C)CO)C[C@@H]2C)cc1 | inactive: 1.01
30 | COC[C@@H](C)NC(=O)C(=O)NC1CC1 | inactive: 0.973
31 | CN(C)CCN1CCN(C)C2(CCN(S(=O)(=O)C3CC3)CC2)C1=O | inactive: 1.01
32 | Cc1noc(C)c1NC(=O)N(C)C[C@@H]1OCCCC[C@@H](C)Oc2ccc(NC(=O)CCCCCC(=O)Nc3ccccc3N)cc2C(=O)N([C@H](C)CO)C[C@@H]1C | inactive: 1
33 | Cn1c(=O)c(=O)n(C)c2cc(S(=O)(=O)N3CCC[C@@H]3C(=O)O)ccc21 | inactive: 0.99
34 | C[C@@H]1CN([C@@H](C)CO)C(=O)c2cc(NC(=O)CCCCCC(=O)Nc3ccccc3N)ccc2O[C@H]1CN(C)C(=O)Nc1ccc(F)cc1 | inactive: 0.989
35 | COCCC(=O)NS(=O)(=O)c1ccccc1 | inactive: 1.01
36 | COc1c(-c2coc3cc4c(cc3c2=O)CC(O)C(C)(C)O4)ccc2c1C=CC(C)(C)O2 (centres undefined) | inactive: 0.821
37 | C[C@H]1CN([C@@H](C)CO)C(=O)Cc2cc(NC(=O)C3CCCCC3)ccc2O[C@H]1CN(C)C(=O)Nc1ccc(C(F)(F)F)cc1 | inactive: 1.01
38 | NCCNc1ccc([N+](=O)[O-])c(NCCO)c1 | inactive: 1.01
39 | CCOc1nc(N2CCOCC2)nc(N2CCOCC2)n1 | inactive: 1.01
40 | CN(C)CCN1C[C@@H]2CN(C(=O)[C@H]3CCCO3)C[C@H]2C1=O | inactive: 0.971
41 | CO[C@H]1CN(C)C(=O)c2ccc(NC(=O)Nc3ccccc3F)cc2OC[C@H](C)N(Cc2ccccc2C(=O)O)C[C@@H]1C | inactive: 1.02
42 | O=C1OCCC/C=C\[C@H]2O[C@@]34C=CCN(c5ccc6ccccc6c5)C(=O)[C@H]3N(CCCCCO)C(=O)[C@@H]4[C@@H]12 | inactive: 0.985
43 | Cc1noc(C)c1S(=O)(=O)Nc1ccc2c(c1)C(=O)N([C@@H](C)CO)C[C@H](C)[C@H](CN(C)C(=O)NC(C)C)O2 | inactive: 1.01
44 | Cc1noc(C)c1S(=O)(=O)N(C)C[C@@H]1Oc2ccc(NS(=O)(=O)c3ccc(Cl)cc3)cc2CC(=O)N([C@H](C)CO)C[C@H]1C | inactive: 1
